Results on 110 molecules are retold here after PubChem BioAssay AID1240 (Sanford-Burnham Center for Chemical Genomics, 2008).

Screen size: about 50,000 compounds; about 800 (1.6%) showed an effect of 50% or more. The list shows a part of the results.

The test addresses Bcl-2-like protein 10 (Homo sapiens) (UniProt Q9HD36). Nature of the test: TR3 peptide-Bcl-B binding displacers, biochemical primary FP assay, phenotype converters (AID 1240).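 Further: 0% = Bcl-B with tracer peptide and DMSO and 100% = tracer peptide lacking Bcl-B.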 The settings on record: GST-Bcl-B / FITC-TR3 peptide fluorescence polarization; stronger effect = higher value; compound at 3.75 mg/L. On the technique in general: Fluorescence polarisation rises when a labelled molecule tumbles more slowly, as on binding a larger partner.
Chain of UniProt Q9HD36 (Q9HD36 whole entry, looked up): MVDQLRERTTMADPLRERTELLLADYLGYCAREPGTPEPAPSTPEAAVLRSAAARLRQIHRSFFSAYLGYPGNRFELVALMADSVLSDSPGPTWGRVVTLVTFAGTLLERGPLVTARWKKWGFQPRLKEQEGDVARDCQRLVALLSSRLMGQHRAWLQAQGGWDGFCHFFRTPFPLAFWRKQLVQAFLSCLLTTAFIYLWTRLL
As to `CC1C(c2ccccc2)NC(c2ccccc2)C(C)C1O` (stereo not given), the displacement was 1.6%.
Turning to `Cc1cccc(OCCOc2ccccc2/C=C2/SC(=S)N(C)C2=O)c1`, the displacement is -0.4%.
`Cc1cc(NC(=O)c2cccc(F)c2)ccc1NC(=O)c1ccccc1`: the displacement was -3.3%.
On to `COc1cccc(/C=N/N=C(\N)c2nonc2N)c1O`, for which the displacement was -21.9%.
On to `COc1cccc(CN2CCN(C3CCN(Cc4ccccc4)CC3)CC2)c1`, for which the displacement was -0.2%.
Under `Cc1cc(F)c(F)c(C(=O)N2CCN(c3cc(N4CCCCC4)c(F)cc3[N+](=O)[O-])CC2)c1Cl` stands -8%; under `CCOCCOC(=O)C1=C(C)NC2=C(C(=O)CCC2)C1c1cccc(Cl)c1` (stereo not given), 4.1%.
Next, `O=C(Nc1sc2c(c1C(=O)Nc1ccccc1)CCCCC2)c1ccc([N+](=O)[O-])cc1`: 0.2%; `O=C(COc1ccccc1)Nc1ccc(Cl)cn1`: 15%; `Cc1c(NC(=S)NC(=O)c2ccccc2Cl)cccc1-c1nc2ccccc2s1`: -7.9%.
Turning to `O=C(O)CCCCCCCCCCN1C(=O)/C(=C/c2cccc(Br)c2)SC1=S`, the displacement is -3.4%.
Under `O=C(NCc1ccccc1Cl)c1c(F)cccc1F` stands -4.1%; under `Clc1ccccc1Cc1noc(-c2ccccc2Cl)n1`, 10%; under `COc1cccc(C(=O)Nc2ccc(-c3nc4cc(C)ccc4o3)c(O)c2)c1`, -24.4%.
Consider `O=c1[nH]nc2c3cc([N+](=O)[O-])c(Cl)cc3n3c(c1-2)CCCCC3`, for which the displacement turned out to be 8.9%.
Under `O=C(Nc1ccc(Cl)cc1)c1ccc(OC2CSC2)cc1` stands -13.5%; under `O=C(/C=C/c1cc(Br)cs1)Nc1cccc([N+](=O)[O-])c1`, 10.6%; under `CCOC(=O)COc1ccc2c(c1)c(C(=O)OCC)c(C)n2C`, 7.8%.
In the case of `Cc1ccc2nc(NC(=O)C3CC(O)CN3C(=O)OC(C)(C)C)sc2c1` (stereo not given), the displacement came out at 6.2%.
For `OC(COc1ccc2ccccc2c1)CN1CCCC1` (stereo not given), the displacement is -3%.
Next, `O=C(/C=C/c1ccc([N+](=O)[O-])cc1)c1cccc(Br)c1`: -5.8%; `CC(=O)C1=C(C)NC(c2ccc(Cl)cc2Cl)NC1c1ccc(Cl)cc1Cl` (stereo not given): -7.3%; `CCc1ccc(OCC(=O)Nc2ccc(-c3nc4cc(C)c(C)cc4o3)c(O)c2)cc1`: 118%.
With `CCOc1ccc(Nc2nc(-c3cccs3)cs2)cc1`, the displacement turned out to be 1.8%.
In the case of `COC(=O)c1ccccc1N1C(=O)c2ccc([N+](=O)[O-])cc2C1=O`, the displacement is -1.2%.
With `Cc1ccccc1NC(=O)CC1Sc2ccccc2NC1=O` (stereo not given), the displacement was 0.8%.
Next, `COc1ccc(-c2ccc(/C=N/n3cnnc3)o2)c([N+](=O)[O-])c1`: 14.5%.
Take `CCOC(=S)N/C(=N/S(C)(=O)=O)c1ccccc1`: the displacement was found to be 8%.
Under `CC(=O)N(C(C)=O)c1ccc(Sc2ccc(Oc3ccc(Sc4ccc(N(C(C)=O)C(C)=O)cc4)cc3)cc2)cc1` stands 1.6%; under `CCCC(=O)Nc1nnc(COc2ccc(C)c(C)c2)s1`, 16.2%.
For `Cc1cc(-c2ccccc2)sc1/C(O)=C/c1nc2ccccc2[nH]c1=O`, the displacement came to 112%.
Next, `Cc1cccc(C)c1OCC(=O)NCc1ccccc1`: 12.4%; `COc1ccccc1N1CCN(/N=C\c2cccc(Br)c2)CC1`: -15.2%.
Next, `CCc1ccc(/C=C2/Sc3ccccc3C2=O)cc1[N+](=O)[O-]`: 12.6%; `O=C(O)/C=C/C(=O)Nc1nc(-c2ccc3ccccc3c2)cs1`: -2.4%.
For the molecule `Clc1ccc(N2CCN(/N=C\c3ccc4c(c3)OCO4)CC2)cc1`, the displacement is -7.4%.
Under `COc1ccc2c(c1[N+](=O)[O-])CCC/C2=N\OC(=O)c1ccccc1` stands 11.6%; under `COc1ccc(CCNC(=O)C(=O)NCC(C)C)cc1`, 6.1%.
For `Cc1ccc(/C=N/c2ncn[nH]2)c(O)c1`, the displacement is -1.6%.
Under `O=C(Nc1ccccc1)Nc1nnc(COc2ccccc2)s1` stands -5.7%; under `CCCCSc1nnc2c(n1)OC1(Nc3ccccc3-2)C(=O)Nc2ccc(Br)cc21` (stereo not given), -5.4%.
Under `O=C(NNC(=O)c1ccc(Oc2ccc(C(=O)NNC(=O)c3ccncc3)cc2)cc1)c1ccncc1` stands 2.7%.
Next, `CC1(C)C(C=C(Cl)Cl)C1C(=O)Nc1ccc(C(=O)O)cc1` (stereo not given): 3.7%; `O=C(CC(c1ccc(Cl)cc1)S(=O)(=O)c1ccccc1)c1ccccc1` (stereo not given): -13.7%; `COC(=O)CN1C(=O)C(=Cc2ccncc2)SC1=S`: 13.9%.
For the molecule `Cc1sccc1/C=N/NC(=O)c1cccnc1`, the displacement came out at 2.8%.
Under `COc1ccccc1CNC(=O)COc1ccc(Cl)cc1C` stands -9.4%; under `O=C(O)CCC(=O)N1N=C(c2ccccc2)CC1c1cccs1` (stereo not given), 32.4%; under `COc1ccc(NC(=O)CN(c2cccc([N+](=O)[O-])c2)S(=O)(=O)c2ccccc2)cc1`, 6.8%.
As for `O=C(/C=C/c1cc(Br)cs1)Nc1cccc(C(F)(F)F)c1`, the displacement is 6.5%.
Turning to `O=C(ON1C(=O)C2C3c4ccccc4C(c4ccccc43)C2C1=O)c1ccccc1` (stereo not given), the displacement came to 2.4%.
As for `COc1ccc(CCNC2CC(=O)N(c3ccc(F)cc3)C2=O)cc1` (stereo not given), the displacement came to 1.9%.
Under `Clc1ccc(-c2nc3ccc(N=Cc4ccco4)cc3[nH]2)c(Cl)c1` stands -9.8%; under `Cc1ccc(N(CC(=O)Nc2ccccc2Cl)S(C)(=O)=O)cc1Cl`, 10%.
In the case of `CC(=O)N1CCN(c2cc(N3CCC(C)CC3)c(F)cc2[N+](=O)[O-])CC1`, the displacement is -4.1%.
With `COc1ccc(CCC(=O)Nc2ccc3c(c2)OCCO3)cc1`, the displacement is -10.4%.
On to `COCc1cc(C)nc(N/N=C/c2c[nH]c3ccccc23)c1C#N`, for which the displacement was -5.4%.
Under `CCCCOC(=O)C1=C(C)NC2=C(C(=O)CC(C)(C)C2)C1c1ccc(C)cc1` (stereo not given) stands 1.8%.
Regarding `COc1cccc(OCC(=O)NNC(=O)COc2ccccc2OC)c1`, the displacement is -2.8%.
For the molecule `O=S(=O)(Nc1cccc(C(F)(F)F)c1)c1ccc2ccccc2c1`, the displacement came out at 8.8%.
Consider `C/C(=N\NC(=O)c1cc(C)[nH]n1)c1ccc2ccccc2c1O`, for which the displacement is -15%.
In the case of `CCOC(=O)c1c(NC(=O)c2c(-c3ccccc3)noc2C)sc(C(=O)N(CC)CC)c1C`, the displacement was -1.1%.
Under `C=CS(=O)(=O)c1ccc(C(C)(C)C)cc1` stands 4.8%; under `Cc1cc2nn(-c3ccccc3)nc2cc1NC(=O)/C=C/c1ccccc1`, 5.1%.
Consider `COCCOC(=O)C1=C(C)NC(C)=C(C(=O)OCCOC)C1c1ccc(-c2cccc(Br)c2)o1`, for which the displacement is 7.3%.
Next, `O=[N+]([O-])c1cc(-c2nnc(-c3ccc(Br)o3)o2)ccc1Cl`: -11%; `Cc1ccc(-c2nnc(SCC(=O)Nc3ccc(F)cc3)o2)cc1`: 7.8%.
`CC1(C)CC(NS(=O)(=O)c2ccc3ccccc3c2)CC(C)(C)N1`: the displacement was -6.5%.
Next, `CCCCc1ccc(-c2csc(/C(C#N)=C/c3ccc(O)c(OC)c3)n2)cc1`: 2.4%.
Take `CCOC(=O)c1c(NC(=O)CSc2nccn2C)sc2c1CCCC2`: the displacement came to 16.6%.
Regarding `O=C(Nc1ccc(NC(=O)c2ccc([N+](=O)[O-])cc2Cl)cc1)c1ccco1`, the displacement is -2.4%.
As for `CCOc1ccc2cc(C(=O)c3ccccc3)c(=O)oc2c1`, the displacement was found to be 6.5%.
As to `CCCOc1ccc(N2C(=O)CC(N(CCc3ccccc3)C(=O)/C=C/C(=O)O)C2=O)cc1` (stereo not given), the displacement was found to be 12.6%.
Next, `CCC12CC3CC(C1)CC(C(=O)N/N=C1/CN4CCC1CC4)(C3)C2`: -8%; `COc1ccc(NC(=O)C(=O)NCC2CCCO2)cc1` (stereo not given): -1.6%; `COC(=O)c1ccc(C2C(C(=O)OCCOc3ccccc3)=C(C)NC3=C2C(=O)CCC3)cc1` (stereo not given): -33.1%.
Next, `COC(=O)c1ccc(NC(=O)COc2c(C)cccc2C)cc1`: -13.3%; `O=C(N=Nc1c(Cl)cc(Cl)cc1Cl)c1ccc(-n2c(O)c3ccccc3c2O)cc1`: 7.6%.
Next, `COc1ccc2nc(SCC(=O)Nc3cc(C)ccc3C)[nH]c2c1`: -8.5%; `CCCC(C)NS(=O)(=O)c1cc(Cl)ccc1Cl` (stereo not given): 14.3%; `Cc1cc(C(N)=O)c(-c2ccccc2)o1`: 9%.
Turning to `C=CCN1C(=O)/C(=C\c2ccc(OCCOCCOc3ccc(C)cc3)cc2)SC1=S`, the displacement turned out to be 9%.
Take `O=C(c1cccc([N+](=O)[O-])c1)c1ccc2c(c1)C(=O)N(N1C(=O)c3ccccc3C1=O)C2=O`: the displacement is 0.5%.
Under `O=C(N/N=C/c1c(F)cccc1Cl)c1ccc(Br)cc1` stands 7.9%.
As for `NC(=O)NC(c1ccccc1)c1cccc(Cl)c1` (stereo not given), the displacement stood at 0.2%.
Next, `Cc1onc(-c2c(Cl)cccc2Cl)c1C(=O)NCc1ccc(Cl)cc1`: 13.1%; `COc1ccc2[nH]c3c(c2c1)CCCC3=O`: -0.9%; `Nc1ccc(Br)c(NC(=O)c2ccccc2)c1`: 3%.
As to `O=C(O)/C=C\C(=O)Nc1ccc2c(c1)Cc1ccccc1-2`, the displacement stood at 2.4%.
For `CCN1C(=O)/C(=C\c2cc(Br)ccc2OCc2ccccc2)SC1=S`, the displacement was determined as 3.3%.
Under `O=S(=O)(c1ccc(Br)cc1Br)n1cnc2ccccc21` stands 5%; under `COc1ccccc1NC(=O)COc1ccc(C)cc1`, -1.1%; under `Cc1ccc(NC(=O)NC(C)(C)C)cc1`, 6.8%.
Under `COc1cc(/C=N/n2cnnc2)ccc1OCc1cccc2ccccc12` stands 46.4%.
As for `N#C/C(=C\c1cn(CC(=O)Nc2ccccc2)c2ccccc12)c1nc2ccccc2[nH]1`, the displacement worked out at 5%.
As for `Oc1ccc(Br)cc1/C=N/Nc1ccccn1`, the displacement was -15.9%.
In the case of `CCOC(=O)c1c(C)nc(-c2ccccc2)nc1NC(C)=O`, the displacement was found to be 0.1%.
Consider `Cc1cc(Br)cc(C)c1NC(=O)c1ccc2c(c1)OCCO2`, for which the displacement came out at 5.4%.
On to `COc1ccc(N(C(C)C(=O)N/N=C/c2ccc(N(C)C)c(Br)c2)S(C)(=O)=O)cc1` (stereo not given), for which the displacement was determined as 1.9%.
For `CCOc1cc(/C=c2/sc3nc4ccccc4n3c2=O)ccc1OS(=O)(=O)c1ccc(C)cc1`, the displacement was 14.1%.
On to `CC(=O)N1c2ccc(Cl)cc2C2C=CCC2C1c1cccc2ccccc12` (stereo not given), for which the displacement was -10.2%.
Take `O=c1cc(Nc2ccc(Br)cc2)c2ccccc2n1-c1ccccc1`: the displacement is -5.3%.
Next, `O=C1c2ccccc2C(=O)N1CCCCN(C(=O)c1cccc([N+](=O)[O-])c1)c1ccc(F)cc1F`: 16.1%; `Cn1nnnc1NC(=O)c1ccccc1F`: 9.6%.
Under `Cc1ccc(OCCOc2ccc(Cl)cc2C=O)cc1` stands -0.6%; under `CCOc1ccccc1NS(=O)(=O)Cc1ccccc1`, 7.5%.
Next, `CCCOc1ccc(C(C)=O)cc1CC(C(N)=O)C(N)=O`: -8%.
On to `Cc1cc(C)nc(/N=C(\N)N2CCc3ccccc3C2)n1`, for which the displacement is -1.9%.
For the molecule `C=CCN(CC=C)C(=O)CCN1C(=O)c2ccccc2C1=O`, the displacement is -7.3%.
As for `NC(=O)c1c(NC(=O)C2C3C=CC(C3)C2C(=O)O)sc2c1CCCC2` (stereo not given), the displacement was -9.3%.
